Assay results published in US7595299B2, “Peptides as NS3-serine protease inhibitors of hepatitis C virus” (priority 2000, dated 2009).
Starred links: 1 amine or outer side, 2 acyl side, 3 side chain; linkers in the order of their positions; H or OH if unused. Non-standard residues stand in square brackets, D forms with d. Residues, ends and D or L forms follow the SMILES beside them. ξ: configuration not given here. *: point of attachment. Isobutyloxycarbonyl = CC(C)COC(=O)*; X2 = O=C(C(=O)[*:2])C(CC1CC1)N[*:1]; NMeAla(cPr) = CN[CH](CC1CC1)C(=O)O; NMeF = CN[C@@H](Cc1ccccc1)C(=O)O; X4 = CCCC(N[*:1])C(=O)C(=O)[*:2]; Ala(cPr) = N[CH](CC1CC1)C(=O)O; NMeL = CN[C@@H](CC(C)C)C(=O)O; Chg = N[CH](C(=O)O)C1CCCCC1; Salicyloyl = O=C(c1ccccc1O)*; Tle = CC(C)(C)[C@H](N)C(=O)O; ξAla(cPr) = NC(CC1CC1)C(=O)O; Phg = N[CH](C(=O)O)c1ccccc1; X27 = CC(C)(C)C#CCOC(=O)*; ξPhg = NC(C(=O)O)c1ccccc1; PhAc = O=C(Cc1ccccc1)*; N(Me)OMe = CON(C)*; NHtBu = CC(C)(C)N*; X20 = CC#CCOC(=O)*; OtBu = CC(C)(C)O*; X15 = C#CCOC(=O)*

target: Recombinant heterodimeric HCV NS3/NS4A protease (strain 1a) (Hepatitis C virus genotype 1a, UniProt P27958); experiment: biochemical; details: not given

SMILES | Ki [nM]
CC(C)COC(=O)NC(C(=O)N(C)C(CC1CC1)C(=O)NC(CC1CC1)C(=O)C(=O)NCC(=O)NC(C(=O)O)c1ccccc1)C1CCCCC1 (centres unmarked) [Example 116] (Isobutyloxycarbonyl-[Chg][NMeAla(cPr)][X2]G[Phg]-OH; configuration not given here) | 101 to 1000
CC(C)(C)OC(=O)C(NC(=O)CNC(=O)C(=O)C(CC1CC1)NC(=O)C(CC1CC1)NC(=O)C(NC(=O)Cc1ccccc1)C1CCCCC1)c1ccccc1 (centres unmarked) [Example 131] (PhAc-[Chg][Ala(cPr)][X2]G[Phg]-OtBu; configuration not given here) | > 1000
CC(C)(C)OC(=O)C(NC(=O)CNC(=O)C(=O)C(CC1CC1)NC(=O)C(CC1CC1)NC(=O)C(NC(=O)c1ccccc1O)C1CCCCC1)c1ccccc1 (centres unmarked) [Example 133] (Salicyloyl-[Chg][Ala(cPr)][X2]G[Phg]-OtBu; configuration not given here) | 101 to 1000

same assay, conditions: HCV protease continuous assay, Table 1; read-out: Ki* Range

SMILES | Ki [nM]
CONC(=O)C(NC(=O)CNC(=O)C(=O)C(CC1CC1)NC(=O)C(CC1CC1)NC(=O)C(NC(=O)OCC(C)C)C1CCCCC1)c1ccccc1 (centres unmarked) [Example 114] | < 100
CC(C)COC(=O)NC(C(=O)N(C)C(CC1CC1)C(=O)NC(CC1CC1)C(=O)C(=O)NCC(=O)NC(C(=O)OC(C)(C)C)c1ccccc1)C1CCCCC1 (centres unmarked) [Example 115] (Isobutyloxycarbonyl-[Chg][NMeAla(cPr)][X2]G[Phg]-OtBu; configuration not given here) | > 1000
CC(C)COC(=O)NC(C(=O)N(C)C(CC1CC1)C(=O)NC(CC1CC1)C(=O)C(=O)NCC(=O)NC(C(=O)N(C)C)c1ccccc1)C1CCCCC1 (centres unmarked) [Example 117] (Isobutyloxycarbonyl-[Chg][NMeAla(cPr)][X2]G[Phg]-NMe2; configuration not given here) | 101 to 1000
CC(C)COC(=O)NC(C(=O)NC(CC1CC1)C(=O)NC(CC1CC1)C(=O)C(=O)NCC(=O)NC(C(=O)NC(C)(C)C)c1ccccc1)C1CCCCC1 (centres unmarked) [Example 118] (Isobutyloxycarbonyl-[Chg][Ala(cPr)][X2]G[Phg]-NHtBu; configuration not given here) | 101 to 1000
CON(C)C(=O)C(NC(=O)CNC(=O)C(=O)C(CC1CC1)NC(=O)C(CC1CC1)N(C)C(=O)C(NC(=O)OCC(C)C)C1CCCCC1)c1ccccc1 (centres unmarked) [Example 119] (Isobutyloxycarbonyl-[Chg][NMeAla(cPr)][X2]G[Phg]-{N(Me)OMe}; configuration not given here) | 101 to 1000
CC(C)COC(=O)NC(C(=O)NC(CC1CC1)C(=O)NC(CC1CC1)C(=O)C(=O)NCC(=O)NC(C(=O)N(C)C)c1ccccc1)C1CCCCC1 (centres unmarked) [Example 120] (Isobutyloxycarbonyl-[Chg][Ala(cPr)][X2]G[Phg]-NMe2; configuration not given here) | < 100
CC(C)COC(=O)N[C@H](C(=O)NC(CC1CC1)C(=O)NC(CC1CC1)C(=O)C(=O)NCC(=O)NC(C(=O)OC(C)(C)C)c1ccccc1)C(C)(C)C (some centres unmarked) [Example 121] (Isobutyloxycarbonyl-[Tle][ξAla(cPr)][X2]G[ξPhg]-OtBu) | 101 to 1000
CC(C)COC(=O)N[C@H](C(=O)NC(CC1CC1)C(=O)NC(CC1CC1)C(=O)C(=O)NCC(=O)NC(C(=O)O)c1ccccc1)C(C)(C)C (some centres unmarked) [Example 122] (Isobutyloxycarbonyl-[Tle][ξAla(cPr)][X2]G[ξPhg]-OH) | < 100
CC#CCOC(=O)NC(C(=O)NC(CC1CC1)C(=O)NC(CC1CC1)C(=O)C(=O)NCC(=O)NC(C(=O)OC(C)(C)C)c1ccccc1)C1CCCCC1 (centres unmarked) [Example 123] (X20-[Chg][Ala(cPr)][X2]G[Phg]-OtBu; configuration not given here) | > 1000
C#CCOC(=O)NC(C(=O)NC(CC1CC1)C(=O)NC(CC1CC1)C(=O)C(=O)NCC(=O)NC(C(=O)OC(C)(C)C)c1ccccc1)C1CCCCC1 (centres unmarked) [Example 124] (X15-[Chg][Ala(cPr)][X2]G[Phg]-OtBu; configuration not given here) | 101 to 1000
CC(C)(C)C#CCOC(=O)NC(C(=O)NC(CC1CC1)C(=O)NC(CC1CC1)C(=O)C(=O)NCC(=O)NC(C(=O)O)c1ccccc1)C1CCCCC1 (centres unmarked) [Example 125] (X27-[Chg][Ala(cPr)][X2]G[Phg]-OH; configuration not given here) | < 100
C#CCOC(=O)NC(C(=O)NC(CC1CC1)C(=O)NC(CC1CC1)C(=O)C(=O)NCC(=O)NC(C(=O)O)c1ccccc1)C1CCCCC1 (centres unmarked) [Example 126] (X15-[Chg][Ala(cPr)][X2]G[Phg]-OH; configuration not given here) | < 100
CC#CCOC(=O)NC(C(=O)NC(CC1CC1)C(=O)NC(CC1CC1)C(=O)C(=O)NCC(=O)NC(C(=O)O)c1ccccc1)C1CCCCC1 (centres unmarked) [Example 127] (X20-[Chg][Ala(cPr)][X2]G[Phg]-OH; configuration not given here) | < 100
CCCC(NC(=O)[C@H](CC(C)C)N(C)C(=O)[C@@H](NC(=O)OCC(C)C)C1CCCCC1)C(=O)C(=O)NCC(=O)NC(C(=O)N(C)C)c1ccccc1 (some centres unmarked) [Example 128] (Isobutyloxycarbonyl-[Chg][NMeL][X4]G[ξPhg]-NMe2) | 101 to 1000
CCCC(NC(=O)[C@H](Cc1ccccc1)N(C)C(=O)[C@@H](NC(=O)OCC(C)C)C1CCCCC1)C(=O)C(=O)NCC(=O)NC(C(=O)N(C)C)c1ccccc1 (some centres unmarked) [Example 129] (Isobutyloxycarbonyl-[Chg][NMeF][X4]G[ξPhg]-NMe2) | > 1000
CC(C)COC(=O)N[C@H](C(=O)NC(CC1CC1)C(=O)NC(CC1CC1)C(=O)C(=O)NCC(=O)NC(C(=O)N(C)C)c1ccccc1)C(C)(C)C (some centres unmarked) [Example 130] (Isobutyloxycarbonyl-[Tle][ξAla(cPr)][X2]G[ξPhg]-NMe2) | < 100
O=C(CNC(=O)C(=O)C(CC1CC1)NC(=O)C(CC1CC1)NC(=O)C(NC(=O)Cc1ccccc1)C1CCCCC1)NC(C(=O)O)c1ccccc1 (centres unmarked) [Example 132] (PhAc-[Chg][Ala(cPr)][X2]G[Phg]-OH; configuration not given here) | 101 to 1000
